Laboratory results as given in the supplement of paper PMC10338343.
± gives the standard deviation. In all, about 6,600 sequences were measured (“pre-steady-state target cleavage rate”: median about 0.07, highest 2% from about 0.72 on). This is a selection; strong and weak results do not stand in their true shares.

Test system: MIWI (PIWIL1) piRISC loaded with Kctd7 piRNA (30 nt)
Assay: pre-steady-state target cleavage rate (min^-1); MIWI and MILI are mouse PIWI proteins and EfPiwi is from a freshwater sponge; tags in brackets are library labels; higher = faster piRNA-guided slicing of the target
Details: guide: Kctd7 piRNA 5'p-UGUUAAUCUCUCAGAGAAGGUGACAGUGAU; auxiliary factor: 500 nM mouse GTSF1
Protocol: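 Cleave-'n-Seq: a library of target RNAs (target site embedded in constant flanks, ACAGCATTCCGCGTTAGTGATATCCG... 5' flank; DNA-blocked outside the site) at 0.1 nM was incubated with 1 nM active mouse MILI or MIWI piRISC (synthetic 5'-monophosphorylated piRNA guide) with or without 500 nM mouse GTSF1 at 33 °C for 1 min to 16 h. Uncleaved targets were sequenced and normalised to non-target controls, and the pooled three trials were fitted to a burst-and-steady-state model to give the pre-steady-state cleavage rate (min^-1; k3 is constrained to at most 1e-4). Sequence is the target site only; target names encode pairing extent (gX:gY) and contiguous / 1-mismatch / 2-mismatch / bulge geometry. Fits with R² ≤ 0 are excluded.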

| Sequence | pre-steady-state target cleavage rate |
| --- | --- |
| UAGACUGUCACCUUCUCCGAGAGAUUAACA | 0.332 ± 0.052 |
| UACACUGUCACGUUCUCUGAGAGAUUAAGA | 0.124 ± 0.021 |
| UACACUGUCACCUACUCUGAGAGAUUAACA | 0.459 ± 0.029 |
| UAGACUGUGUGCUUCUCUGAGAGAUUAAGA | 0.00505 ± 0.0028 |
| UAGACUGUCACCUUCUCUGUGAGAUAAACA | 0.174 ± 0.015 |
| UACACUGGCACCUUCUCUGAGAGAUUAACA | 0.453 ± 0.12 |
| UUCAGACUCACCUUCUCUGAGAGAUUUUGA | 0.0132 ± 0.0032 |
| UAGUGAGUCACGUUCUCUGAGUGAUUAACA | 0.019 ± 0.0034 |
| UACACUGUCACGUACUCUGAGAGAUUAACA | 0.334 ± 0.032 |
| UAGUGACACACCUUCUGUGAGAGUUUAACA | 0.157 ± 0.025 |
| UAGUGAGUCACCUUCUCUGACAGAUUAACA | 0.388 ± 0.031 |
| UAGACUGUCACCUUGUCUGAGAGAAUAACA | 0.157 ± 0.051 |
| UUCACUGUCACCUUCUGUGAGUGAUUAACA | 0.0234 ± 0.0055 |
| UAGUGAGUCACCUUCUCUGAGAGAUAUUGA | 0.0893 ± 0.029 |
| AUCACUGUCACCUUCACUGAGAGAUUAAGA | 0.211 ± 0.039 |
| UAGUCUGUCACCUUCUGUGAGAGUUUAACA | 0.143 ± 0.019 |
| UAGUGACAGACCUUCUCUGAGUGAUAAACA | 0.0116 ± 0.0035 |
| UUCACUGUCACCAUGUCUGAGAGAUUAACA | 0.23 ± 0.015 |

| Sequence | pre-steady-state target cleavage rate |
| --- | --- |
| UAGUCUGUCACCUUCUCUGAGAGUUUUACA | 0.21 ± 0.042 |
| UAGACUGUCACCUUCUCUGAGAUAUUAACA | 0.116 ± 0.012 |
| UAGUGAGUCACCUUCUCUGACAGUUUAACA | 0.0866 ± 0.016 |
| UUGACUGUCACCUUCUCUGAGAGAUUAUCA | 0.28 ± 0.031 |
| UAGACUGUCACCAUCUCUGUGAGAUUAACA | 0.155 ± 0.013 |
| UAGUGUGUCACCUUCAGUGAGAGAUUAAGA | 0.0142 ± 0.0059 |
| UAGACUGUGACCUUCUCUGAGAGAUUAACA | 0.696 ± 0.051 |
| UUCACUGUCACCUUCUCUGAGUCAUUAACA | 0.0116 ± 0.0029 |
| UACACUGUCACCUUGUGUGAGAGAUUAACA | 0.129 ± 0.017 |
| UAGUGUGUCACCUUCUCUGAGAGAUUACACA | 0.0925 ± 0.024 |
| AUCAGUGUCACCUUCUGUGAGAGAUUAACA | 0.601 ± 0.026 |
| UAGUGUGUCACCUUCUCUGAAGAUUAACA | 0.00856 ± 0.0039 |
| AUCACUGUCACCUUCUCUCAGAGUUUAACA | 0.0766 ± 0.0086 |
| UAGACUGUCACCUUCUCUGUGAGAUUUACA | 0.211 ± 0.026 |
| UAGUGACUCACCUUCACUGAGAGAUUAUCA | 0.298 ± 0.059 |
| AUCACUGUCACCUUCUCUGAGAGAAUAAGA | 0.152 ± 0.037 |
| UAGUGACACACCUUCUCUGAGACAUUAACA | 0.0884 ± 0.013 |
| UACACUGUCUCCUUGUCUGAGAGAUUAACA | 0.193 ± 0.032 |
